This is one part of the list. Viral Rep nickase domains cut single-stranded DNA in vitro (1 h at 37 °C, 3 µM enzyme); the outer parts of the 90-letter strands are left off. The score is log2 (uncut reads / reads without enzyme); uncut sequences lie near 0, cut ones below; no hit call is given. Counts are relative to all reads; where an enzyme cuts many sequences, the uncut ones exceed 0.
Experiments:
Test in all cases: uncleaved DNA left, log2 of reads against the no-enzyme library (log2 ratio); higher = less cleavage (more negative = more Rep cleavage of the k-mer); sequences stand for … in CTCGTCCG…ACCGGAGA
[1] = tested on: T1, Rep nickase domain of Muscovy duck circovirus
T1 sequence (residues 1-111, tag not shown): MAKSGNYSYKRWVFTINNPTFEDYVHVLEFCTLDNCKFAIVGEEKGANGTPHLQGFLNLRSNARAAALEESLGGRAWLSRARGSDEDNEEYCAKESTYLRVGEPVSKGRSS
Experimental: (§1)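 A pool of 90-nt single-stranded DNAs with seven random bases just before the constant AC of the nick site (name = the seven bases) was cut by 3 µM recombinant His6-SUMO-tagged Rep nickase domain (300 nM DNA, 50 mM HEPES pH 8.0, 50 mM NaCl, 1 mM MnCl2, 1 h, 37 °C, three replicates). Uncut DNA was amplified and sequenced.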

[2] = tested on: T2, Rep nickase domain of banana bunchy top virus
T2 sequence (residues 1-94, tag not shown): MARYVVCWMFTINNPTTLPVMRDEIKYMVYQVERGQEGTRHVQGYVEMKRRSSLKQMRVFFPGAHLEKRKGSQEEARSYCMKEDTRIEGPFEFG
Experimental: as §1

[3] = tested on: T3, Rep nickase domain of cabbage leaf curl virus
T3 sequence (residues 1-116, tag not shown): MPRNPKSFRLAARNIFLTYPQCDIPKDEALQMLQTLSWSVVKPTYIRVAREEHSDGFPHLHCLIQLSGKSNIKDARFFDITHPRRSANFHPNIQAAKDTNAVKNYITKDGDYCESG
Experimental: as §1

[4] = tested on: T4, Rep nickase domain of chickpea chlorotic dwarf virus
T4 sequence (residues 1-124, tag not shown): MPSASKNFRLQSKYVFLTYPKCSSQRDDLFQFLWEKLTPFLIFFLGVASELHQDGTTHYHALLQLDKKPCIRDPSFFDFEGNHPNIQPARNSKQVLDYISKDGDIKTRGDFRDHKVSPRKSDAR
Experimental: as §1

[5] = tested on: T5, Rep nickase domain of faba bean necrotic yellows virus
T5 sequence (residues 1-98, tag not shown): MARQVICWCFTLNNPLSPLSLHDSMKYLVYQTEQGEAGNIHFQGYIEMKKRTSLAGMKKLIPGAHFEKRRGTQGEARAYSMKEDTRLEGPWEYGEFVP
Experimental: as §1

[6] = tested on: T6, Rep nickase domain of maize striate mosaic virus
T6 sequence (residues 1-117, tag not shown): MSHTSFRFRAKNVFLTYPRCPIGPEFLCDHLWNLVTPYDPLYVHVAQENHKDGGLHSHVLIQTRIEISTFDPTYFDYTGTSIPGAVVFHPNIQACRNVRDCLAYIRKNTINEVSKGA
Experimental: as §1

[7] = tested on: T7, Rep nickase domain of porcine circovirus 2
T7 sequence (residues 2-116, tag not shown): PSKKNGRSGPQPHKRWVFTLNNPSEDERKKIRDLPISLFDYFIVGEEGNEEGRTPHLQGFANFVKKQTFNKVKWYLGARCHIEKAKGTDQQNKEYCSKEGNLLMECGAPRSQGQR
Experimental: as §1

[8] = tested on: T8, Rep nickase domain of tomato yellow leaf curl virus
T8 sequence (residues 1-136, tag not shown): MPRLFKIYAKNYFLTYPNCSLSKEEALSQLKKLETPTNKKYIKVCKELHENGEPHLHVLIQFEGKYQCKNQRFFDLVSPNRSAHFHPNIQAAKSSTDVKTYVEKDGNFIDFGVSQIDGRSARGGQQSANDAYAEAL
Experimental: as §1

[9] = tested on: T9, Rep nickase domain of wheat dwarf virus
T9 sequence (residues 1-137, tag not shown): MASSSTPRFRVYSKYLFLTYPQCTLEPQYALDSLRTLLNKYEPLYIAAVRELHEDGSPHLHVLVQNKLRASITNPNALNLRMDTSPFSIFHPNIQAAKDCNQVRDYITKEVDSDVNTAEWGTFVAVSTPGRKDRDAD
Experimental: as §1

Sequence: GATGGGG
- uncleaved DNA left (log2) [1]: 0.0423
- uncleaved DNA left (log2) [2]: 0.00695
- uncleaved DNA left (log2) [3]: 0.028
- uncleaved DNA left (log2) [4]: 0.196
- uncleaved DNA left (log2) [5]: -0.0107
- uncleaved DNA left (log2) [6]: -0.259
- uncleaved DNA left (log2) [7]: 0.109
- uncleaved DNA left (log2) [8]: -0.0259
- uncleaved DNA left (log2) [9]: -0.107

Sequence: AGAGATA
- uncleaved DNA left (log2) [1]: 0.0552
- uncleaved DNA left (log2) [2]: -0.0503
- uncleaved DNA left (log2) [3]: 0.00204
- uncleaved DNA left (log2) [4]: 0.246
- uncleaved DNA left (log2) [5]: 0.0611
- uncleaved DNA left (log2) [6]: 0.947
- uncleaved DNA left (log2) [7]: -0.144
- uncleaved DNA left (log2) [8]: -0.0929
- uncleaved DNA left (log2) [9]: 0.00209

Sequence: TCAGTGT
- uncleaved DNA left (log2) [1]: 0.0955
- uncleaved DNA left (log2) [2]: -0.0434
- uncleaved DNA left (log2) [3]: -0.0717
- uncleaved DNA left (log2) [4]: -0.103
- uncleaved DNA left (log2) [5]: -0.0626
- uncleaved DNA left (log2) [6]: -0.187
- uncleaved DNA left (log2) [7]: 0.11
- uncleaved DNA left (log2) [8]: -0.0313
- uncleaved DNA left (log2) [9]: -0.0809

Sequence: ATATTTT
- uncleaved DNA left (log2) [1]: -3.44
- uncleaved DNA left (log2) [2]: -0.386
- uncleaved DNA left (log2) [3]: -2.76
- uncleaved DNA left (log2) [4]: -3.21
- uncleaved DNA left (log2) [5]: -0.0242
- uncleaved DNA left (log2) [6]: -1.11
- uncleaved DNA left (log2) [7]: -3.88
- uncleaved DNA left (log2) [8]: -0.155
- uncleaved DNA left (log2) [9]: -0.682

Sequence: ACCGGTC
- uncleaved DNA left (log2) [1]: 0.00693
- uncleaved DNA left (log2) [2]: -0.153
- uncleaved DNA left (log2) [3]: 0.0371
- uncleaved DNA left (log2) [4]: 0.277
- uncleaved DNA left (log2) [5]: 0.0183
- uncleaved DNA left (log2) [6]: -0.443
- uncleaved DNA left (log2) [7]: 0.0841
- uncleaved DNA left (log2) [8]: -0.168
- uncleaved DNA left (log2) [9]: -0.0187

Sequence: GTATAGC
- uncleaved DNA left (log2) [1]: 0.0599
- uncleaved DNA left (log2) [2]: 0.152
- uncleaved DNA left (log2) [3]: 0.217
- uncleaved DNA left (log2) [4]: 0.544
- uncleaved DNA left (log2) [5]: 0.101
- uncleaved DNA left (log2) [6]: 0.043
- uncleaved DNA left (log2) [7]: 0.158
- uncleaved DNA left (log2) [8]: 0.0927
- uncleaved DNA left (log2) [9]: 0.00245

Sequence: ACAACCA
- uncleaved DNA left (log2) [1]: -0.0745
- uncleaved DNA left (log2) [2]: 0.063
- uncleaved DNA left (log2) [3]: -0.172
- uncleaved DNA left (log2) [4]: -1.83
- uncleaved DNA left (log2) [5]: 0.0276
- uncleaved DNA left (log2) [6]: -0.708
- uncleaved DNA left (log2) [7]: -0.321
- uncleaved DNA left (log2) [8]: -0.0616
- uncleaved DNA left (log2) [9]: 0.0613

Sequence: CTATGGA
- uncleaved DNA left (log2) [1]: 0.08
- uncleaved DNA left (log2) [2]: 0.0287
- uncleaved DNA left (log2) [3]: -0.0437
- uncleaved DNA left (log2) [4]: -0.0174
- uncleaved DNA left (log2) [5]: 0.0388
- uncleaved DNA left (log2) [6]: -0.557
- uncleaved DNA left (log2) [7]: 0.122
- uncleaved DNA left (log2) [8]: -0.0391
- uncleaved DNA left (log2) [9]: 0.0596

Sequence: GTCAGCA
- uncleaved DNA left (log2) [1]: -0.0067
- uncleaved DNA left (log2) [2]: 0.147
- uncleaved DNA left (log2) [3]: 0.273
- uncleaved DNA left (log2) [4]: 0.626
- uncleaved DNA left (log2) [5]: 0.077
- uncleaved DNA left (log2) [6]: 0.857
- uncleaved DNA left (log2) [7]: 0.0741
- uncleaved DNA left (log2) [8]: 0.0185
- uncleaved DNA left (log2) [9]: 0.0997

Sequence: GTTCTTC
- uncleaved DNA left (log2) [1]: -0.0733
- uncleaved DNA left (log2) [2]: -0.000448
- uncleaved DNA left (log2) [3]: 0.29
- uncleaved DNA left (log2) [4]: 0.701
- uncleaved DNA left (log2) [5]: -0.00763
- uncleaved DNA left (log2) [6]: 1.54
- uncleaved DNA left (log2) [7]: -0.0293
- uncleaved DNA left (log2) [8]: -0.0575
- uncleaved DNA left (log2) [9]: -0.0091

Sequence: TCACCAA
- uncleaved DNA left (log2) [1]: -0.0558
- uncleaved DNA left (log2) [2]: -0.0346
- uncleaved DNA left (log2) [3]: 0.00833
- uncleaved DNA left (log2) [4]: -0.49
- uncleaved DNA left (log2) [5]: 0.0698
- uncleaved DNA left (log2) [6]: -0.371
- uncleaved DNA left (log2) [7]: -0.26
- uncleaved DNA left (log2) [8]: -0.0623
- uncleaved DNA left (log2) [9]: 0.0568

Sequence: GGTCCCA
- uncleaved DNA left (log2) [1]: -0.013
- uncleaved DNA left (log2) [2]: 0.143
- uncleaved DNA left (log2) [3]: 0.475
- uncleaved DNA left (log2) [4]: 0.998
- uncleaved DNA left (log2) [5]: -0.0186
- uncleaved DNA left (log2) [6]: 1.71
- uncleaved DNA left (log2) [7]: 0.0619
- uncleaved DNA left (log2) [8]: 0.0754
- uncleaved DNA left (log2) [9]: 0.131

Sequence: AAGTGTA
- uncleaved DNA left (log2) [1]: -0.11
- uncleaved DNA left (log2) [2]: -0.247
- uncleaved DNA left (log2) [3]: 0.0239
- uncleaved DNA left (log2) [4]: -0.356
- uncleaved DNA left (log2) [5]: -0.0579
- uncleaved DNA left (log2) [6]: 0.616
- uncleaved DNA left (log2) [7]: -2.68
- uncleaved DNA left (log2) [8]: -0.0571
- uncleaved DNA left (log2) [9]: -0.0845

Sequence: ACGCTCC
- uncleaved DNA left (log2) [1]: -0.07
- uncleaved DNA left (log2) [2]: -0.0902
- uncleaved DNA left (log2) [3]: -0.0389
- uncleaved DNA left (log2) [4]: 0.202
- uncleaved DNA left (log2) [5]: -0.0586
- uncleaved DNA left (log2) [6]: 0.581
- uncleaved DNA left (log2) [7]: -0.02
- uncleaved DNA left (log2) [8]: -0.168
- uncleaved DNA left (log2) [9]: -0.15

Sequence: GAAGTCT
- uncleaved DNA left (log2) [1]: 0.0941
- uncleaved DNA left (log2) [2]: 0.0369
- uncleaved DNA left (log2) [3]: -0.2
- uncleaved DNA left (log2) [4]: -1.91
- uncleaved DNA left (log2) [5]: 0.0551
- uncleaved DNA left (log2) [6]: 0.42
- uncleaved DNA left (log2) [7]: -0.311
- uncleaved DNA left (log2) [8]: 0.0289
- uncleaved DNA left (log2) [9]: -0.0824
